In PubChem BioAssay AID588591 (National Center for Advancing Translational Sciences (NCATS), 2011):
Several values for one entry are separate records, joined by “and”; a condition that tells them apart may be missing. Equal values may be shown once. Hit rate of the full screen: of about 390,000 compounds, about 4,700 (1.2%) were called active. Inconclusive means that the source gave no clear call. Such entries were picked first, then a sample of the others. The call rests on the fitted dose curve; in most records, active means well fitted inhibition curve with a large enough effect; inconclusive means small, poorly fitted or top-dose-only effect, or another doubt; inactive means no such curve, though single readings can be large or run the other way. Potencies of inconclusive entries are doubtful fits and often do not repeat. Some compounds were tested as several samples or in several runs, with calls that do not always agree.

Molecular target: DNA polymerase eta (Homo sapiens) (UniProt Q9Y253)
Assay: qHTS for Inhibitors of Polymerase Eta
Details: recombinant Pol eta, fluorescent DNA replication assay; series mostly up to 114 µM; activity change, negative = inhibition: at the top concentration
Procedure, shortened: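 Pol eta (10 nM) was preincubated with compounds for 15 min at room temperature, after which fluorescent replication substrate (50 nM final) was added to start the reaction. Fluorescence was read kinetically at 0 and 10 min.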
On the % scale 0 is the no-effect control and ±100 the full control effect; potency means the concentration at half of the fitted maximal effect; tags describe the fitted curve by direction and shape.

Sequence of UniProt Q9Y253 (Q9Y253 whole entry, looked up): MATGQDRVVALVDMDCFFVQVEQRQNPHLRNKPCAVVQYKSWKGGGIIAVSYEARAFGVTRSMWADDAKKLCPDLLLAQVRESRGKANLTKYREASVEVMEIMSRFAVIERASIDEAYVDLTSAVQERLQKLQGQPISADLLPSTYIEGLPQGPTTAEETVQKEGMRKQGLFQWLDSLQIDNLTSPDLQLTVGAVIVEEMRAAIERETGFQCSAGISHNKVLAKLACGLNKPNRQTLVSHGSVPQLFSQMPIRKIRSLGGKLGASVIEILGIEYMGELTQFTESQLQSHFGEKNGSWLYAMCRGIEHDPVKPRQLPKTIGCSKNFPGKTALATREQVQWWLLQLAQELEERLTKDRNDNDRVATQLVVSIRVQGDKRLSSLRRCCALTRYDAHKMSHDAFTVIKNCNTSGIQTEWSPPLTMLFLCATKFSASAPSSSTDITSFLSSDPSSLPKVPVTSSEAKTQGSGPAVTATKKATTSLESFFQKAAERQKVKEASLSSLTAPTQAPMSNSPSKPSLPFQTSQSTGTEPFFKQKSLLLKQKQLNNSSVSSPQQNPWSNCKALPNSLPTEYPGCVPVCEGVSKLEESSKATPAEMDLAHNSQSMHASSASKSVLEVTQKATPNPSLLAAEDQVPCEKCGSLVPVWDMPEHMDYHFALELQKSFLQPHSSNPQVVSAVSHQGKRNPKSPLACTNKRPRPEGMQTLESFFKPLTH

Row | Compound | Potency | activity change, negative = inhibition
1 | CC(=O)Nc1cccc(Oc2ncnc3scc(-c4ccc(C(C)C)cc4)c23)c1 | inconclusive: 79.4 µM [inhibitor, partial curve, poor fit] | 
2 | CC(c1ccccc1)C1C(C#N)=C(N)SC(N)=C1C#N (stereo not drawn) | inconclusive: 17.8 µM [inhibitor, partial curve, poor fit] | 
3 | CCOC(=O)C(=NC1CCCCC1)NNc1cccc(C(F)(F)F)c1 | inconclusive: 79.4 µM [inhibitor, single point] | 
4 | N#Cc1c(NC(=O)COC(=O)c2ccc(O)cc2O)sc2c1CCC2 | active: 20 µM | 
5 | CC(/C=C/c1ccc(N(C)C)cc1)=N\N=C(/N)SC1CC(=O)N(c2ccc(C(=O)O)cc2)C1=O (stereo not drawn) | active: 44.7 µM | 
6 | COc1ccc(-c2nnc(Nc3ccc(CC(N)=O)cc3)c3ccccc23)cc1 | inconclusive: 28.2 µM [inhibitor, single point] | 
7 | CCN(Cc1cnn(C)c1)C(=O)c1cc(COc2cc(C)c(Cl)c(C)c2)on1 | inconclusive: 89.1 µM [inhibitor, partial curve, poor fit] | 
8 | CN(C)c1ccc(C(=O)OCC(=O)Nc2ccc(S(N)(=O)=O)cc2)cc1 | inconclusive: 15.8 µM [inhibitor, full curve] | 
9 | Fc1ccccc1N1CCN(C(c2ccncc2)c2nnnn2C2CCCC2)CC1 (stereo not drawn) |  | inactive: -12.5%
10 | Cc1cccc(N2CCN(C(=O)/C=C/c3ccco3)CC2)c1C | inconclusive: 35.5 µM [inhibitor, partial curve, poor fit] | 
11 | CN1C(C(=O)NCC2CC2)CC2Cn3c(nc4cc5ccccc5cc43)C21 (stereo not drawn) |  | inactive: -5.44%
12 | c1ccc(Cn2c(-c3ccco3)nc3nc4ccccc4nc32)cc1 | inconclusive: 17.8 µM [inhibitor, partial curve, poor fit] | 
13 | Cc1cc(/C=N/NC(=O)c2cccc(N(C)C)c2)c(C)n1-c1cc(C(=O)O)cc(C(=O)O)c1 | active: 20 µM | 
14 | COc1ccccc1CNc1ncnc2c1c(-c1ccccc1)cn2-c1cccc(C)c1 |  | inactive: -10.8%
15 | CN(C)c1cccc(C(=O)OCC(=O)NC2CCCC2)c1 | inconclusive: 35.5 µM [inhibitor, partial curve, poor fit] | 
16 | COc1ccccc1C(=O)Nc1nc2nc(C)c(Cc3ccccc3)c(=O)n2[nH]1 | inconclusive: 56.2 µM [inhibitor, partial curve, poor fit] | 
17 | CC1CCN(CCCNC(=O)c2cc3c(Cl)nc4ccccc4c3s2)CC1 |  | inactive: -16.2%
18 | O=C(Nc1c2c(nc3ccccc13)CCCC2)c1cccc([N+](=O)[O-])c1 | inconclusive: 89.1 µM [inhibitor, single point] | 
19 | CSCCC(NC(=O)c1ccco1)C(=O)OCC(=O)Nc1ncc(Cl)c(C)c1Cl (stereo not drawn) | inconclusive: 15.8 µM [inhibitor, partial curve, poor fit] | 
20 | CN(C(=O)COC(=O)c1ccc(-c2ccc(O)cc2)cc1)C1CCS(=O)(=O)C1 (stereo not drawn) | inconclusive: 44.7 µM [inhibitor, partial curve] | 
21 | Cc1ccc(N(C)C(=O)N2CCN(S(=O)(=O)c3ccc4ccccc4c3)CC2)cc1 | inconclusive: 79.4 µM [inhibitor, partial curve, poor fit] | 

Row | Compound | Potency | activity change, negative = inhibition
22 | COc1ccc(NC(=O)CCSc2nnnn2C)cc1 | inconclusive: 0.631 µM [inhibitor, full curve, poor fit] | 
23 | CCC1CCCCN1C(=O)c1c[nH]c2ccc(S(=O)(=O)Nc3cccc(OC)c3)cc2c1=O (stereo not drawn) | active: 89.1 µM | 
24 | CC(C)(C)C1CCc2c(sc3nc(SCC(N)=O)nc(N)c23)C1 (stereo not drawn) | inconclusive: 44.7 µM [inhibitor, partial curve] | 
25 | CCOc1ccc(S(=O)(=O)N2CCOCC2)cc1NC(=O)CSCc1ccc(C)cc1 | inconclusive: 89.1 µM [inhibitor, partial curve, poor fit] | 
26 | CC1CCCC(NC(=O)COC(=O)c2ccc3c(c2)OCCO3)C1C (stereo not drawn) | inconclusive: 100 µM [inhibitor, partial curve, poor fit] | 
27 | COc1ccc(/[N+]([O-])=C/c2ccco2)cc1 | active: 89.1 µM | 
28 | C(=C/c1nccc2c1[nH]c1ccccc12)/c1ccc2c(c1)OCO2 |  | inactive: -26.3%
29 | Cc1ccc(C2C3=C(CCCC3=O)Nc3nc(SCC(=O)NCc4ccco4)[nH]c(=O)c32)cc1 (stereo not drawn) | inconclusive: 31.6 µM [inhibitor, partial curve, poor fit] | 
30 | COc1cc2c(cc1OC)C(Cc1cc(OC)c(OC)cc1[N+](=O)[O-])=NCC2 | inconclusive: 31.6 µM [inhibitor, partial curve, poor fit] | 
31 | COc1ccccc1C1C(C(=O)c2cc3ccccc3o2)=C(O)C(=O)N1CCN(C)C (stereo not drawn) | inconclusive: 15.8 µM [inhibitor, partial curve, poor fit] | 
32 | COc1ccc(NC(=O)COC(=O)c2cc3c(s2)CCC3)cc1 | active: 44.7 µM | 
33 | COc1ccccc1/C=C/C=N/n1c(-c2n[nH]c3c2CCC3)n[nH]c1=S | inconclusive: 39.8 µM [inhibitor, partial curve] | 
34 | CC[C@]12C(=O)N(C)C[C@H]([C@@H]3C(=O)N(C)C(=O)[C@@H]31)N2C(=O)c1ccc(C)cc1 | inconclusive: 79.4 µM [inhibitor, partial curve, poor fit] | 
35 | Cc1ccc(-c2ccc([C@H]3[C@@H]4C=CCC[C@@]4(C)C(=O)N3Cc3ccccc3)c(F)c2)cc1 | inconclusive: 79.4 µM [inhibitor, partial curve, poor fit] | 
36 | CN1CCN(c2ccc(S(=O)(=O)N3CCOCC3)cc2)CC1 | inconclusive: 89.1 µM [inhibitor, partial curve, poor fit] | 
37 | Cc1cnc(C(=O)OC(C)C(=O)Nc2ccc3c(c2)OCCO3)cn1 (stereo not drawn) | inconclusive: 4.47 µM [inhibitor, full curve, poor fit] | 
38 | CCOc1cc(/C=C2\SC(=Nc3ccccc3)N(c3ccccc3)C2=O)ccc1OCC(=O)O | inconclusive: 39.8 µM [inhibitor, partial curve, poor fit] | 
39 | Cc1ccc(C(=O)CSC2=C(C#N)C(c3ccco3)CC(=O)N2)c(C)c1 (stereo not drawn) | active: 79.4 µM | 
40 | O=C(O)c1ccc(Cl)c(S(=O)(=O)NC(Cc2c[nH]c3ccccc23)C(=O)O)c1 (stereo not drawn) | inconclusive: 39.8 µM [inhibitor, single point] | 
41 | COc1ccc(OCc2nn3c(-c4ccco4)nnc3s2)cc1 | inconclusive: 22.4 µM [inhibitor, partial curve] | 
42 | CC(=O)c1c(C)[nH]c(C(=O)N(C)C(c2ccccc2)c2ccccc2)c1C | inconclusive: 89.1 µM [inhibitor, partial curve, poor fit] | 

Row | Compound | Potency | activity change, negative = inhibition
43 | Cc1ccc(-c2nc3ncccc3o2)cc1NC(=O)c1ccccc1 | active: 56.2 µM | 
44 | Cc1ccc(NC(=O)CN2C(=O)CC(c3ccco3)Sc3ccccc32)cc1Cl (stereo not drawn) |  | inactive: -20%
45 | CCOc1ccc(NC(=O)C(CC)n2nc(C)c3c(C)n(-c4ccccc4)nc3c2=O)cc1 (stereo not drawn) | inconclusive: 79.4 µM [inhibitor, partial curve, poor fit] | 
46 | Oc1cc(O)cc(/C=C/c2ccc(O)c(O)c2)c1 | inactive and active: 17.8 µM | 
47 | COc1ccccc1CCNC(=O)Cn1ccc2cc(S(=O)(=O)N3CCC(C)CC3)ccc21 |  | inactive: -7.17%
48 | N#Cc1ccc(-c2csc(NC(=O)c3ccc(N4C(=O)CCC4=O)cc3)n2)cc1 |  | inactive: -6.95%
49 | CCN1CCN(c2nc(Nc3cccc(OC)c3)nc(N)c2[N+](=O)[O-])CC1 | inconclusive: 79.4 µM [inhibitor, partial curve, poor fit] | 
50 | COc1ccc(N=Cc2ccc(N(CCC#N)CCC#N)cc2)cc1 | inconclusive: 31.6 µM [inhibitor, partial curve, poor fit] | 
51 | O=C(COc1ccc(Cl)cc1Cl)Nc1ccc(C(=O)Nc2ccccc2C(=O)O)cc1 |  | inactive: 7.93%
52 | Cc1cc(C)c(C(=O)CSc2n[nH]c(-c3ccncc3)n2)c(C)c1 | inconclusive: 100 µM [inhibitor, partial curve, poor fit] | 
53 | O=C(O)Cc1sc(Nc2cccc3ccccc23)nc1-c1ccc(Cl)cc1 | active: 79.4 µM | 
54 | O=C(NC(=S)Nc1ccccc1)c1ccc(-c2ccccc2)cc1 |  | inactive: -3.23%
55 | CNC(=S)N/N=C/c1c2ccccc2c(Cl)c2ccccc12 | inconclusive: 56.2 µM [inhibitor, partial curve, poor fit] | 
56 | NC(=O)[C@H](Cc1cc2ccccc2s1)NC(=O)[C@@H]1CC2(CC(c3cccc(NC(=O)[C@@H]4CCC(=O)N4)c3)=NO2)CN1C(=O)/C=C/c1c(F)cccc1Cl (stereo partly drawn) | inconclusive: 79.4 µM [inhibitor, single point] | 
57 | O=C(Nc1ccc(NC(=O)c2sc3ccccc3c2Cl)cc1)c1ccco1 | inconclusive: 12.6 µM [inhibitor, partial curve] | 
58 | Cc1cccc(C(=O)N/N=C/c2ccoc2)c1 | inconclusive: 39.8 µM [inhibitor, partial curve] | 
59 | CCCN1CCN(C(=O)Cn2ncc3ccccc32)CC1 | active: 25.1 µM | 
60 | CC(C)C(Sc1nc(-c2ccccc2)cc(-c2ccccc2)c1C#N)C(=O)O (stereo not drawn) | inconclusive: 89.1 µM [inhibitor, single point] | 
61 | COc1ccc2nc3cc(Cl)ccc3c(Nc3ccc(O)c(CN4CCN(C)CC4)c3)c2c1 | inconclusive: 31.6 µM [inhibitor, partial curve] | 
62 | O=C1CCCc2oc3ccc(NS(=O)(=O)c4cccc5cccnc45)cc3c21 | active: 89.1 µM | 
63 | Cc1ccccc1NS(=O)(=O)c1ccc2[nH]cc(C(=O)NCCc3ccccc3)c(=O)c2c1 | active: 31.6 µM | 
